Measured values published in PMC4336329 (PLoS ONE, 2015).
In all, about 310,000 compounds went through this assay and about 2,200 (0.71%) showed an effect of 50% or more. The effect is printed as a negative number. The list shows a part of the results.

target: human ether-à-go-go-related gene (hERG) potassium channel (human, UniProt Q12809); assay: primary screen, population patch clamp on CHO cells stably expressing hERG
Sequence (Q12809 whole entry, looked up): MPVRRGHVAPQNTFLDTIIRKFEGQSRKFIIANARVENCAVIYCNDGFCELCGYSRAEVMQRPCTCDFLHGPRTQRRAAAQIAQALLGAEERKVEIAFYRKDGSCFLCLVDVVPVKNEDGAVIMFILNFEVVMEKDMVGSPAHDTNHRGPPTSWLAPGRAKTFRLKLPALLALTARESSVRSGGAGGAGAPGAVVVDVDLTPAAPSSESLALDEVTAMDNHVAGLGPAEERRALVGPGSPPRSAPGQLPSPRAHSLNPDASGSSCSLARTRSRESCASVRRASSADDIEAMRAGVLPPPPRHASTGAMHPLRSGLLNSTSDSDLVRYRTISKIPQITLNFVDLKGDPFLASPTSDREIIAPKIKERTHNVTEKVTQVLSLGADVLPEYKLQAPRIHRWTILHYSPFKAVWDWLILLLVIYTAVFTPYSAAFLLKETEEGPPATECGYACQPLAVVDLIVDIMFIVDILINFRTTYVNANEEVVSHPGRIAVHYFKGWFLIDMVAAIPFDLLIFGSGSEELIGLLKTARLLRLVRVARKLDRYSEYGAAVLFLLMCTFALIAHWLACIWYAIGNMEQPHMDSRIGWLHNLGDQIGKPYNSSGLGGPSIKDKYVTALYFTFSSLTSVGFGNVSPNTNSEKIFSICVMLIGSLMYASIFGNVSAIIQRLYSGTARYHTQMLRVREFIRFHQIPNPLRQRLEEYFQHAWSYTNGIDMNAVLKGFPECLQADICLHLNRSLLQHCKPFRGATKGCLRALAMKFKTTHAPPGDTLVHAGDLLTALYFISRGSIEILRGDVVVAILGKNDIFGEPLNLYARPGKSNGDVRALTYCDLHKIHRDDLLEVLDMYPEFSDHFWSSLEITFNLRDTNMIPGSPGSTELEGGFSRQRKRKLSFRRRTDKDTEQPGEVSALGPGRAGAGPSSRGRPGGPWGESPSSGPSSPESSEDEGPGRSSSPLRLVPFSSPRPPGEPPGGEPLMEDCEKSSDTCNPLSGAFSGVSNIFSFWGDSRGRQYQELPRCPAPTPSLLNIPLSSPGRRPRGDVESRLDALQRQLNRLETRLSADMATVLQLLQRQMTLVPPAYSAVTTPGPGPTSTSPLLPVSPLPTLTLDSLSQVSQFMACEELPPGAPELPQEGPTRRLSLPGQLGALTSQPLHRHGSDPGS

| Structure (SMILES) | hERG current change (%, negative = inhibition) at 1uM |
| --- | --- |
| CCOc1ccccc1N(C(=O)Nc1ccc(Cl)cc1)C1=NCCS1 | 9.01% |
| Cc1cc(C(=O)Nc2c(C)n(C)n(-c3ccccc3)c2=O)cs1 | -1.47% |
| CC(C)c1ccc(NC(=O)CCNS(=O)(=O)c2cccc3nsnc23)cc1 | 0.28% |
| O=C(O)CCC(=O)N1CCN(c2cccc(Cl)c2)CC1 | 8.91% |
| O=Cc1c[nH]c2ccc(S(=O)(=O)N3CCOCC3)cc12 | 16.2% |
| CCOC(=O)C(Oc1ccc2c(-c3ccc(OC)cc3)cc(=O)oc2c1C)c1ccccc1 (stereo not drawn) | 3.56% |
| O=C(NCCO)c1ccc2nc(Cc3cccc(Cl)c3)oc2c1 | 9.42% |
| C#CCn1c(=NC(=O)c2ccc(S(=O)(=O)N3CCCc4ccccc43)cc2)sc2cc(S(N)(=O)=O)ccc21 | 2.36% |
| O=C(Cc1ccccc1)Nc1ccnn1C1CCN(Cc2ccc(CO)o2)CC1 | 11.4% |
| COc1[nH]c(/N=C/c2ccccc2)c(C#N)c1C#N | 13.2% |
| CN(C)CCCn1c(SCC(=O)Nc2nc(-c3cccc(Br)c3)cs2)nc2ccccc2c1=O | -3.37% |
| O=[N+]([O-])c1ccc(Cl)cc1NCc1cccnc1 | 14.3% |
| CCOC(=O)C1=C(C)N=c2s/c(=C/c3ccc(OCC(=O)O)cc3)c(=O)n2C1c1ccc(F)cc1 (stereo not drawn) | 11.1% |
| CCOc1ccc2[nH]cc(S(=O)(=O)c3ccc(F)cc3)c(=O)c2c1 | 2.07% |
| CN(C)c1cccc2c(S(=O)(=O)N3CCCC3)cccc12 | 18.2% |
| COc1ccccc1-c1ccc(Nc2cccc(C(F)(F)F)c2)nn1 | 17.8% |
| O=C(O)c1cc2c(cc1NC(=O)c1c(F)cccc1F)OCCCO2 | 7.9% |
| CC(CC(=O)Nc1nc2ccccc2[nH]1)n1ccnc1 (stereo not drawn) | 2.92% |
| O=C(c1cccc(S(=O)(=O)Nc2ccc(Br)cc2)c1)N1CCCC1 | 5.53% |
| O=c1c2ccccc2c(C=Nc2cccc(S(=O)(=O)NCc3ccco3)c2)c(O)n1-c1ccc(Cl)cn1 | 7.7% |
| Cc1ccc(-n2ncc3c(NNC(=O)c4cccs4)ncnc32)cc1 | 9.2% |
| O=c1[nH][nH]cc1C=Nc1ccc(Cl)cc1 | 5.81% |

| Structure (SMILES) | hERG current change (%, negative = inhibition) at 1uM |
| --- | --- |
| CCOc1ccc(/C=C2\SC(=O)N(CCNC(=O)C3COc4ccccc4O3)C2=O)cc1OC (stereo not drawn) | 8.84% |
| COc1cc(/C=N/NC(=O)Cc2nnc(N)s2)cc(OC)c1OC | 20.3% |
| CCN1CCN(C(=S)Nc2cccc(Cl)c2)CC1 | 13% |
| COc1ccc(C(=O)NNC(=O)Cc2ccc(-c3ccccc3)cc2)cc1OC | -5.96% |
| CCCn1ncc(C(=O)NC2CCCN(Cc3ccc(Cl)cc3)C2)c1C (stereo not drawn) | 2.88% |
| Cc1ccc(-c2noc(CSc3nnc(-c4ccncc4)n3-c3ccc(C)cc3)n2)cc1 | -6.06% |
| COc1ccc(-n2c(SC)nc3ccccc3c2=O)cc1 | -3.85% |
| CCn1c(CCNC(=O)c2ccccc2Cl)n[nH]c1=S | 4.18% |
| Cc1cc(C(=O)CS(=O)(=O)c2ccccc2)cc(C)c1OC(=O)N(C)C | 12.3% |
| Cc1ccc(C)c(NC(=O)c2cc(S(=O)(=O)N3CCCCC3)c[nH]2)c1 | 11.3% |
| COc1ccc(CCNC(=O)c2cccc(S(=O)(=O)N3CCOCC3)c2)cc1OC | 19.7% |
| O=C1C2CCCN2C(=O)N1CCN1CCN(CCO)CC1 (stereo not drawn) | 9.8% |
| CCOC(=O)c1ccc(N/C=C/C(=O)c2ccccc2)cc1 | 13.8% |
| CCOc1cccc(/C=N/N2CCN(c3ccc(Cl)cc3)CC2)c1O | 16.2% |
| COC(=O)c1sccc1NC(=O)C1CC(C)=C(C)CC1C(=O)O (stereo not drawn) | 14.9% |
| COc1ccc(OCC(O)CNC(=O)c2c(-c3ccccc3)noc2C)cc1 (stereo not drawn) | 7.45% |
| O=C(/C=C/c1ccccc1)NNC1=NS(=O)(=O)c2ccccc21 | 16.4% |
| CCOC(=O)C1=C(O)C(=O)N(CCCn2ccnc2)C1c1ccc(C)cc1 (stereo not drawn) | 14.5% |
| O=C(CN1CCCCC1)Nc1cccc(Cl)c1Cl | 5.13% |
| O=c1[nH]c(/C=C\c2cccc(O)c2)nc(O)c1[N+](=O)[O-] | 12.8% |
| Cc1ccc(S(=O)(=O)CCC#N)cc1 | 9.07% |
| COc1ccc(/C=N/c2oc(-c3ccccc3)cc2C#N)cc1 | 8.34% |

| Structure (SMILES) | hERG current change (%, negative = inhibition) at 1uM |
| --- | --- |
| O=C(CSCc1ccccc1Cl)Nc1ccc(C(=O)O)cc1 | 20% |
| O=C(CCS(=O)(=O)c1ccccc1)Nc1nc2cc3c(cc2s1)OCO3 | 10.3% |
| O=C(c1cccs1)N(Cc1ccco1)c1nc(-c2ccc(F)cc2)cs1 | -1.03% |
| CC(C)(C)CN1CCN(Cc2cc3ccccc3[nH]2)CC1CCO (stereo not drawn) | 7.74% |
| O=C(CCC(=O)N1CCOc2ccc(Cl)cc21)NCCCN1CCC(Cc2ccccc2)CC1 | -64.7% |
| Cc1ccc(CNC(=O)C2(C)Oc3ccccc3NC2=O)cc1 (stereo not drawn) | 1.94% |
| CCN(CC(=O)NC(=O)NC1CCCC1)Cc1ccccc1 | 8.77% |
| CC(C)CCCN1C(Nc2ccccc2)=NC[C@@H]1Cc1ccccc1 | -28.4% |
| CCN(CC(=O)Nc1ccc(OC)cc1)C(=O)c1ccc([N+](=O)[O-])cc1 | 10.1% |
| CCC1=Nc2cc(C(=O)NCC3CCCO3)ccc2Sc2ccc(Br)cc21 (stereo not drawn) | 9.21% |
| Cc1cc(-c2nnc(-c3cc4ccccc4oc3=O)o2)c(C)n1-c1ccccc1 | 9.2% |
| CSCCCNC(=S)N1CCc2ccccc2C1 | 8.63% |
| O=C(N/N=C/c1ccc(OC(=O)c2cccc(F)c2)cc1)c1cccnc1 | -16.2% |
| Cc1cc(C)c(S(=O)(=O)N2CCOC2CNC(=O)C(=O)NCCCN2CCCC2=O)c(C)c1 (stereo not drawn) | 7.05% |
| O=[N+]([O-])c1ccc2nc(-c3ccc(OC(F)F)cc3)cn2c1 | -2.23% |
| CC1(C)OC(C)(C)/C(=C\c2ccc(OCC(N)=O)cc2)C1=O | 10.4% |
| CCCCn1c(CN2CCN(c3ccc(F)cc3)CC2)nc2c1c(=O)n(C)c(=O)n2C | 4.22% |
| O=C(O)c1ccc(/C=N/Nc2ccc(S(=O)(=O)N3CCCC3)cc2[N+](=O)[O-])cc1 | 8.64% |
| Cc1cc(C)nc(Nc2ccc(N3CCOCC3)cc2)n1 | 14.1% |
| Cc1c(C(=O)Nc2ccc(F)cc2)cn2c(nc3ccccc32)c1C#N | 5.63% |
| CC1(C)C2CCC(C2)C1(C)NC(=O)CN1CCCC1.Cl (stereo not drawn) | 12.7% |
| O=C(NC1=NCCS1)C1Cc2ccccc2CN1C(=O)c1ccccc1 (stereo not drawn) | 5.48% |

| Structure (SMILES) | hERG current change (%, negative = inhibition) at 1uM |
| --- | --- |
| CCn1cc(C(=O)N[C@H](C(=O)NCCCn2ccnc2)C(C)C)c(=O)c2cc3c(cc21)OCO3 | 19.1% |
| Cc1cc(C)nc(OC(C(=O)O)C(OCc2ccccc2)(c2ccccc2)c2ccccc2)n1 (stereo not drawn) | 20.2% |
| O=S(=O)(c1ccc(Cl)c(S(=O)(=O)N2CCCC2)c1)N1CCCC1 | 9.15% |
| COc1ccc(/C=C(\NC(=O)/C=C/c2ccco2)C(=O)NCCc2nc3ccccc3[nH]2)cc1 | -10.5% |
| O=C(CSc1nnc(-c2ccco2)n1-c1ccccc1Cl)Nc1cccc(C(=O)O)c1 | 20.4% |
| CCCn1c(=O)[nH]c(=O)c2c1nc(-c1cc([N+](=O)[O-])ccc1Cl)n2CCOC | 7.18% |
| C/C(=N/NC(=O)CNC(=O)c1cccs1)c1ccc(Cl)cc1 | 14.8% |
| O=C(Nc1ccc(N2CCOCC2)cc1)c1c(F)cccc1Cl | -0.893% |
| O=C(Nc1cc(C(F)(F)F)ccc1Cl)c1ccc(NC(=O)C(F)(F)F)cc1 | 2.84% |
| N#Cc1ccc(COc2ccc(CCO)cc2-n2nc3ccccc3n2)cc1 | -22.4% |
| N#Cc1ccsc1NC(=O)c1ccc(Cl)c([N+](=O)[O-])c1 | 18.4% |
| N#C/C(=C\c1ccc(N2CCCC2)c([N+](=O)[O-])c1)c1nc2ccccc2[nH]1 | -4.76% |
| C[C@]12CCC(=O)C(O)=C1CC[C@@H]1[C@@H]2CC[C@]2(C)C(=O)CC[C@@H]12 | 7.7% |
| CC(C)n1c2ccccc2c2nc3ccccc3nc21 | 4.8% |
| O=C(O)CN1CCN(Cc2ccccc2F)C1=O | 13.4% |
| N#CCSc1nnc(-c2ccc3c(c2)OCO3)o1 | 16.8% |
| O=C(Nc1ccccc1C(=O)N/N=C/c1ccncc1)c1ccccc1 | 11% |
| CN1C(=O)CSc2ccc(NC(=O)NCc3cccnc3)cc21 | 7.28% |
| Cc1ccc2nc(-c3ccncc3)cc(C(=O)Nc3ccc(F)cc3C)c2c1 | 5.85% |
| CCn1ncc(Br)c1C(=O)Nc1sc2c(c1C(=O)OC)CCC2 | -2.58% |
| COc1ccc(CCNC(=O)CC(NS(=O)(=O)c2ccc(NC(C)=O)cc2)C(C)C)cc1OC (stereo not drawn) | 15.8% |
